Results from the BET-seq Pho4 binding data (Le et al. 2018).
Some of the results follow. Values were computed here from the reads of four pooled replicates and scatter widely.

Target: T1, Pho4 (S. cerevisiae) (UniProt P07270)
T1 sequence: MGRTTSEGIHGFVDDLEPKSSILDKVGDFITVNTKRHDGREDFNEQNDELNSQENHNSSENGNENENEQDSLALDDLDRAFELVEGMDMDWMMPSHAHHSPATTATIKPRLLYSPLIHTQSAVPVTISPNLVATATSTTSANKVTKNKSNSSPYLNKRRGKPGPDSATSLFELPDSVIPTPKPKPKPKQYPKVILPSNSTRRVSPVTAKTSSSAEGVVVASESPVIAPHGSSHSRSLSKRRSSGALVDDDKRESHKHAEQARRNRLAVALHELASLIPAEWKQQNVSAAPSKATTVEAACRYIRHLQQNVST
Assay: relative binding free energy (BET-seq); higher = weaker binding
Conditions: reference: library average

| Sequence | relative binding free energy [kcal/mol] |
| --- | --- |
| ATTGACACGTGGTCTG | -0.08 |
| GAAGGCACGTGTATTA | 0.09 |
| AGTTACACGTGGCTAT | 0.02 |
| TATTTCACGTGAGTTA | 0.34 |
| GGGCGCACGTGCTTGT | -0.18 |
| AGATTCACGTGGCGTA | 0.31 |
| AAGCGCACGTGGGAGT | -0.19 |
| GTAGTCACGTGTAAGG | 0.21 |
| GTCGGCACGTGGGCGA | -0.14 |
| TTATGCACGTGAAGGG | 0.3 |
| TCGGGCACGTGTACGG | -0.07 |
| TCAGGCACGTGGGGTG | -0.26 |
| AGTGACACGTGTAGTT | 0.06 |
| TTCCTCACGTGAGGGG | 0.37 |
| GTGTACACGTGGTGCG | 0 |
| GTGCGCACGTGTCTTT | 0.02 |
| TCGGACACGTGAGGTG | 0.33 |
| TAGATCACGTGCTAGG | 0.29 |
| GTGCTCACGTGTAGAT | 0.45 |
| TATATCACGTGAAGGG | 0.46 |
| AAGTTCACGTGGTCTG | 0.06 |
| TTGCTCACGTGTTGGC | 0.17 |
| GTTAGCACGTGTGGGT | 0.09 |

| Sequence | relative binding free energy [kcal/mol] |
| --- | --- |
| CGGCACACGTGTGGAG | 0.2 |
| TTGTGCACGTGCAGTG | 0.09 |
| AGCCGCACGTGGGGGT | -0.28 |
| GGGTTCACGTGGAGTG | 0.38 |
| CATAACACGTGTGGGA | 0.07 |
| TGTCACACGTGGTGCG | -0.07 |
| TCAGTCACGTGCTGTG | 0.04 |
| GATTACACGTGTAGGC | 0.26 |
| CTGGCCACGTGTGGTT | -0.03 |
| GGGGGCACGTGAAAGT | 0.14 |
| TCGGTCACGTGGGGGC | 0.02 |
| ATGGGCACGTGGGGAG | -0.37 |
| GTTGACACGTGGGAAT | 0.01 |
| GTATCCACGTGTGTTG | 0.01 |
| TAAATCACGTGTATTA | 0.06 |
| GTAGTCACGTGCAATG | 0.14 |
| GATTTCACGTGTTTAC | 0.44 |
| TTTCTCACGTGAGATG | 0.35 |
| TATGACACGTGATGGC | 0.02 |
| GGAGACACGTGGTTAG | -0.21 |
| TAAGGCACGTGATTGA | 0.07 |
| GGTTTCACGTGAATAG | 0.3 |
| TGGTCCACGTGGCAGG | -0.15 |

| Sequence | relative binding free energy [kcal/mol] |
| --- | --- |
| TGAATCACGTGTAGAT | 0.26 |
| GTTTACACGTGGAAAA | 0.3 |
| TATGTCACGTGCAGGC | 0.11 |
| AGAAGCACGTGATGAG | 0.16 |
| TGGAGCACGTGGCGGA | -0.06 |
| ATATACACGTGTTGTG | 0.01 |
| ATCGGCACGTGGATAG | 0 |
| GATAGCACGTGTGATT | 0.11 |
| GAGAGCACGTGGTAGG | -0.09 |
| TAACGCACGTGTGTTT | -0.07 |
| GGTCACACGTGTGTAT | 0.24 |
| TTGTCCACGTGTTAGC | 0.17 |
| GGGAACACGTGAGGGT | 0.26 |
| CATTTCACGTGTTGGG | 0.14 |
| TGGGGCACGTGCTAGG | -0.2 |
| TGAGACACGTGCGGGT | -0.07 |
| GTTTACACGTGTGTGC | 0.23 |
| ATTCACACGTGGTCTT | 0.08 |
| AGTTTCACGTGACGTG | 0.33 |
| TGAGACACGTGGTTAA | -0.09 |
| TGAGACACGTGGAAGT | 0.22 |
| TGTCTCACGTGGCGGA | 0.06 |
| GAGATCACGTGGTCGG | 0.19 |

| Sequence | relative binding free energy [kcal/mol] |
| --- | --- |
| TGGGTCACGTGGCAGT | 0.06 |
| GGGGGCACGTGGAAGA | 0.05 |
| TCAGGCACGTGGGCTT | -0.22 |
| TATTACACGTGTGGAT | 0.1 |
| ATTGTCACGTGATATT | 0.3 |
| TCTATCACGTGTGTGG | 0.14 |
| GTAGACACGTGGGTGT | -0.07 |
| AGAAGCACGTGTGTTA | -0.05 |
| TGCGGCACGTGATTGA | -0.04 |
| TCTTCCACGTGTGTGT | -0.01 |
| ATAAGCACGTGTTGTA | -0.13 |
| TAGAACACGTGGTATG | -0.19 |
| TTGAACACGTGAGCTT | 0.29 |
| CGGATCACGTGGTGTT | 0.13 |
| TGGCTCACGTGTTATG | 0.19 |
| TTAGGCACGTGAAGAT | 0.11 |
| TATTCCACGTGTGGGA | 0.08 |
| GGTTTCACGTGCGGGA | 0.27 |
| TGTGTCACGTGGACTA | 0.06 |
| GGGATCACGTGTTTAT | 0.14 |
| AACTGCACGTGTTTTT | 0.03 |
| GTTCGCACGTGTGTTT | 0.03 |
| TGGCTCACGTGCAGGT | 0.07 |

| Sequence | relative binding free energy [kcal/mol] |
| --- | --- |
| AGTATCACGTGGGCAG | 0.01 |
| TATTGCACGTGATGCA | 0.03 |
| TATAGCACGTGGTAAT | -0.13 |
| GGGGGCACGTGGGACT | -0.15 |
| TACTGCACGTGTAATG | 0.03 |
| CTGTTCACGTGTTCGT | 0.23 |
| AGTAGCACGTGGGGAC | -0.09 |
| TAGGGCACGTGAGGTC | 0.09 |
| AAATACACGTGTTTGT | 0.07 |
| GAATTCACGTGGTGTT | 0.27 |
| CGGGCCACGTGCGGTT | -0.09 |
| GGGTTCACGTGATTTG | 0.44 |
| GTGTTCACGTGCAGGT | 0.29 |
| GGAGTCACGTGCGAGG | 0.18 |
| AAAGGCACGTGTTTGT | -0.06 |
| CTTATCACGTGGGTTG | -0.01 |
| TTTTTCACGTGTATAC | 0.19 |
| GTTAGCACGTGGTTCA | 0.05 |
| GTGCACACGTGAGGTG | 0.39 |
| ATGGGCACGTGAGTAA | 0.22 |
| AGTTCCACGTGCGTGG | 0 |
| CTCTACACGTGTGTGT | 0.05 |
| AGAATCACGTGTAATG | 0.2 |
